Measurements published in PubChem BioAssay AID588579 (National Center for Advancing Translational Sciences (NCATS), 2011).
Where “and” joins values, the source holds several entries; their conditions need not be identical. Identical values can stand only once. About 2,200 (0.55%) of roughly 400,000 compounds were called active. About 1% were inconclusive and are not listed. The call rests on the fitted dose curve; in most records, active means well fitted inhibition curve with a large enough effect; inconclusive means small, poorly fitted or top-dose-only effect, or another doubt; inactive means no such curve, though single readings can be large or run the other way. This is a selection; strong and weak results do not stand in their true shares. A structure can be active in one record and inactive in another.

Target: DNA polymerase kappa (Homo sapiens) (UniProt Q9UBT6)
Assay: qHTS for Inhibitors of Polymerase Kappa
Conditions: purified Pol kappa, fluorescent DNA synthesis assay, 10 min; activity, negative = inhibition: at the top concentration
Protocol: The processing and repair of DNA interstrand crosslinks (ICL) in eukaryotic cells are extremely complex, potentially involving multiple DNA repair and damage tolerance pathways, including homologous recombination, nucleotide excision repair, translesion synthesis (TLS), and cell cycle checkpoints.
To that end, in a collaboration between the Oregon Health & Science University and the NIH Chemical Genomics Center a 1536-well high-throughput screen was developed. This fluorescent screen was assayed against the NIH Molecular Libraries Small Molecule Repository (MLSMR) to discover inhibitors of Pol Kappa.
NIH Chemical Genomics Center [NCGC]
NIH Molecular Libraries Probe Centers Network [MLPCN]
Assay Submitter (PI): Stephen Lloyd, Oregon Health & Science University
Three microliters of reagents (buffer in column 3 and 4 as negative control and 10 nM Pol kappa in columns 1, 2, and 5-48) were dispensed into a 1536-well black solid-bottom plate. Compounds (23 nL) were transferred via Kalypsys pin tool equipped with 1536-pin array. The plates were then incubated for 15 min at room temperature, and 1 uL substrate (50 nM final concentration) were then added to start the reaction and kinetically read twice at 0 min and 10 min on the Viewlux reader
On the % scale 0 is the no-effect control and ±100 the full control effect; potency means the concentration at half of the fitted maximal effect.

UniProt Q9UBT6, sequence (Q9UBT6 whole entry, looked up): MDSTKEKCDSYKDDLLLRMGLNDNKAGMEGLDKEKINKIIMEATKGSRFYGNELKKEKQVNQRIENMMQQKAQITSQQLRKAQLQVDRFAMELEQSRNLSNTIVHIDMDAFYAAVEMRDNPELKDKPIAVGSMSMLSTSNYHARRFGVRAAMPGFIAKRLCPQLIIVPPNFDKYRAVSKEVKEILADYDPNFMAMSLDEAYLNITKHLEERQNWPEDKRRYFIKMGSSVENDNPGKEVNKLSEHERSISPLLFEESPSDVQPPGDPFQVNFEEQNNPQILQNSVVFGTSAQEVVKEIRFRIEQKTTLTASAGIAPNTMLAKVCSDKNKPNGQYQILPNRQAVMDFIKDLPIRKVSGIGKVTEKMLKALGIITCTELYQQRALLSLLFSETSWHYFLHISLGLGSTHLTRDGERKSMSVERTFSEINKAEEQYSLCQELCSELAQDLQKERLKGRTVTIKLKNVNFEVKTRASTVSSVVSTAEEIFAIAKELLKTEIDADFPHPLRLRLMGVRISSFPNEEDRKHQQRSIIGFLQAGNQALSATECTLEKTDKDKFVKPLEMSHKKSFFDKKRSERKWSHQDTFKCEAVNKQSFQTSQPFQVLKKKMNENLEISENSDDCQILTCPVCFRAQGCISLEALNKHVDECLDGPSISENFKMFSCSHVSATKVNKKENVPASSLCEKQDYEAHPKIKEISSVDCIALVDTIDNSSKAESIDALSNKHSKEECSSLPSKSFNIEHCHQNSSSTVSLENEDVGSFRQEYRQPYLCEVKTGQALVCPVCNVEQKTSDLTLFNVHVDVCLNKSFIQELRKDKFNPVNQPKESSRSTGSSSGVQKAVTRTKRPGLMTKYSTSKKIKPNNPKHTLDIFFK

SMILES	Potency	activity, negative = inhibition
CC[C@@H](CO)NC(=O)[C@@H]1C=C2c3cccc4c3c(cn4C)C[C@H]2N(C)C1	inactive	
Cc1ccc(N2C(=O)NC(=O)/C(=C\C=C\c3ccco3)C2=O)cc1		inactive: -99.7% [at 107 µM]
CC12NC(Cc3ccccc31)c1ccccc12 (stereo not drawn)	inactive	
O=C1NC(=S)N(c2ccc(F)cc2)C(=O)/C1=C\c1ccoc1	active: 1 µM	
Clc1ccc(CO[C@@H](Cn2ccnc2)c2ccc(Cl)cc2Cl)cc1		inactive: -7.34% [at 12 µM]
C[C@]12CC[C@H]3[C@@H](CCC4=CC(=O)CC[C@@]43C)[C@@H]1CC[C@@H]2O	inactive	
CC(C)[C@H]1C(=O)O[C@@H]2CCN3CC=C(COC(=O)[C@](C)(O)[C@]1(C)O)[C@H]23		inactive: 18.4% [at 107 µM]
CC(C)[C@H]1C(=O)N2CCC[C@H]2[C@]2(O)O[C@](NC(=O)[C@@H]3C=C4c5cccc6[nH]cc(c56)C[C@H]4N(C)C3)(C(C)C)C(=O)N12		inactive: -34.9% [at 107 µM]
N#CC(C#N)=Cc1ccc(O)c(O)c1	inactive	
CC1COC2=C1C(=O)C(=O)c1c2ccc2c1CCCC2(C)C (stereo not drawn)	active: 20 µM and active: 28.2 µM	
CCCCC/C=C\C/C=C\C/C=C\C/C=C\CCCC(=O)N[C@H](C)CO		inactive: -3.7% [at 19.4 µM]
CCC1OC2(C)C(O)C(/C=C/C=C/C=C/c3oc(=O)cc(OC)c3C)OC1(C)C2OC(C)=O (stereo not drawn)		inactive: 14.8%
O=C(O)CO		inactive: 20.1%
O[C@H]1[C@H](O)[C@@H](O)CN2CC[C@H](O)[C@H]12	inactive	
CN1C[C@H](C(=O)N[C@]2(C)O[C@@]3(O)[C@@H]4CCCN4C(=O)[C@H](Cc4ccccc4)N3C2=O)C=C2c3cccc4[nH]cc(c34)C[C@H]21		inactive: -19.2%
Cc1cc(/C=C2/C(=O)NC(=O)N(Cc3ccco3)C2=O)c(C)n1-c1ccc(C(=O)O)cc1	active: 50.1 µM	
CC(C)C[C@H]1C(=O)N2CCC[C@@H]2[C@]2(O)O[C@](NC(=O)[C@H]3C=C4c5cccc6[nH]c(Br)c(c56)C[C@H]4N(C)C3)(C(C)C)C(=O)N12		inactive: -2.88% [at 12 µM]
C=CCN1C(=O)/C(=C/c2ccc(Br)s2)C(=O)NC1=S	active: 79.4 µM	
O[C@@H]1[C@H](O)[C@H]2[C@@H](O)CCN2C[C@@H]1O		inactive: -6.2% [at 19.4 µM]
C=C(C)[C@H]1CN[C@H](C(=O)O)[C@@H]1CC(=O)O		inactive: -3.34% [at 19.4 µM]
C[C@H](CCC(=O)O)[C@H]1CC[C@@H]2[C@@H]3[C@@H](O)C[C@H]4C[C@@H](O)CC[C@@]4(C)[C@H]3CC[C@@]21C		inactive: -4.26% [at 19.4 µM]
CC(C)C[C@H]1C(=O)N2CCC[C@@H]2[C@]2(O)O[C@](NC(=O)[C@@H]3C=C4c5cccc6[nH]c(Br)c(c56)C[C@H]4N(C)C3)(C(C)C)C(=O)N12		inactive: -11.9% [at 19.4 µM]
CC(C)C1C(=O)O[C@@H]2CCN3CC=C(COC(=O)[C@](C)(O)[C@]1(C)O)[C@H]23 (stereo partly drawn)		inactive: 17.8%
CCCCCCCCCCCCCC(=O)OC1C(C)[C@@]2(O)C(C=C(CO)C[C@]3(O)C(=O)C(C)=C[C@H]23)[C@@H]2C(C)(C)[C@]12OC(C)=O (stereo partly drawn)		inactive: -13.1%
CC(C)=CCN1CC[C@@]2(C)c3cc(O)ccc3C[C@@H]1C2C (stereo partly drawn)		inactive: -19.9% [at 107 µM]
COC(C)(C)CCCC(C)C/C=C/C(C)=C/C(=O)OC(C)C (stereo not drawn)	inactive	
N[C@@H](Cn1oc(=O)[nH]c1=O)C(=O)O	inactive	

SMILES	Potency	activity, negative = inhibition
CCOC(=O)C1=C(N)Oc2c(c(=O)oc3ccccc23)C12C(=O)N(C)c1ccccc12 (stereo not drawn)		inactive: -22.6% [at 107 µM]
C[C@H](CCC(=O)O)[C@H]1CC[C@H]2[C@@H]3[C@@H](O)C[C@@H]4C[C@H](O)CC[C@]4(C)[C@H]3CC[C@]12C		inactive: -14.4% [at 107 µM]
O=C(O)COc1nc(Cl)c(Cl)cc1Cl		inactive: 12.3%
CN1C[C@H](CNC(=O)OCc2ccccc2)C[C@H]2c3cccc4c3c(cn4C)C[C@@H]21	inactive	
CCCCC/C=C\C/C=C\C/C=C\C/C=C\CCCC(=O)NCc1ccc(O)c(OC)c1		inactive: -16.7% [at 19.4 µM]
CN(C)c1ccc(/C=C/c2cc[n+](C)c3ccccc23)cc1	inactive	
O=C(Nc1cc[c]([Sb](=[O])([OH])[OH])cc1)c1ccccc1	active: 6.31 µM	
CN(N=O)c1ccc(O)c(O)c1	active: 2.38 µM	
CNCCc1ccc(O)c(O)c1		inactive: 2.77% [at 107 µM]
COC[C@H]1OC(=O)c2coc3c2[C@@]1(C)C1=C(C3=O)[C@@H]2CCC(=O)[C@@]2(C)C[C@H]1OC(C)=O	inactive	
CC1=NCCc2c1[nH]c1cc(O)ccc21	inactive	
O=[N+]([O-])c1cc(O)c(O)c([N+](=O)[O-])c1	active: 3.16 µM and active: 15.8 µM	
O=C(CO)C(O)C(O)C(O)CO (stereo not drawn)	inactive	
COc1ccc(CN2C(=O)NC(=O)/C(=C/c3ccc([N+](=O)[O-])s3)C2=O)cc1	active: 22.4 µM	
NCCc1ccc(S(=O)(=O)F)cc1		inactive: 8.34%
CC(C)N(CCC(C(N)=O)(c1ccccc1)c1ccccn1)C(C)C (stereo not drawn)	inactive	
Cc1cccc(N2CCc3c2nc2ccccc2c3N)c1		inactive: 4.32% [at 107 µM]
CC1=C(O)C(=O)C=C2C1=CC=C1C2(C)CCC2(C)C3CC(C)(C(=O)O)CCC3(C)CCC12C (stereo not drawn)	active: 31.6 µM	
CN(C)C1C(=O)C(C(N)=O)=C(O)[C@@]2(O)C(=O)C3=C(O)c4c(O)cccc4[C@@](C)(O)C3C[C@@H]12 (stereo partly drawn)		inactive: -12% [at 19.4 µM]
CN1Cc2ccccc2[C@@H]2c3cccc4[nH]cc(c34)C[C@H]21		inactive: -11.3% [at 19.4 µM]
CC12CCC3c4ccc(OC(=O)N(CCCl)CCCl)cc4CCC3C1CCC2O (stereo not drawn)		inactive: -4.9% [at 107 µM]
Oc1ccc2c3c1O[C@H]1c4oc5ccccc5c4C[C@@]4(O)C(C2)N(CC2CC2)CC[C@]314		inactive: -0.17% [at 19.4 µM]
CC(N)C(=O)NCC(=O)NC1CSSCC(C(=O)O)NC(=O)C(CO)NC(=O)C(C(C)O)NC(=O)C(Cc2ccccc2)NC(=O)C(C(C)O)NC(=O)C(CCCCN)NC(=O)C(Cc2c[nH]c3ccccc23)NC(=O)C(Cc2ccccc2)NC(=O)C(Cc2ccccc2)NC(=O)C(CC(N)=O)NC(=O)C(CCCCN)NC1=O (stereo not drawn)		inactive: 1.35% [at 19.4 µM]
CCCCC/C=C\C/C=C\C/C=C\C/C=C\CCCC(=O)Nc1ccc(O)cc1C		inactive: -17.7% [at 12 µM]
C=C(C)[C@H]1CN[C@H](C(=O)O)[C@H]1CC(=O)O	inactive	
CN(C)[C@@H]1C(=O)C(C(N)=O)=C(O)[C@]2(O)C(=O)C3=C(O)c4c(O)ccc(Cl)c4[C@](C)(O)[C@H]3C[C@@H]12		inactive: -7.47% [at 12 µM]
